Source: the supplement of paper PMC5998384

Tests used:
HeLa Kyoto [1] = assay: solubility in G1/S (NP-40 vs SDS abundance) (log2 ratio); higher = more soluble; conditions: cell cycle stage: G1/S
HeLa Kyoto [2] = assay: solubility change mitosis vs G1/S (difference of NP-40 vs SDS log2 ratios) (log2 ratio difference); higher = more soluble in mitosis
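Wherever solubility change mitosis vs G1/S (difference of NP-40 vs SDS log2 ratios) is given: synchronized HeLa Kyoto cells (double thymidine block for G1/S, nocodazole release for mitosis), protein amounts in NP-40 versus SDS lysates quantified by mass spectrometry, three biological replicates.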
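Wherever solubility in G1/S (NP-40 vs SDS abundance) is given: HeLa Kyoto cells arrested at G1/S by double thymidine block, proteins quantified by TMT10plex mass spectrometry in mild NP-40 versus SDS extracts, three biological replicates.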

Sequence: MAEAGPQAPPPPGTPSRHEKSLGLLTTKFVSLLQEAKDGVLDLKLAADTLAVRQKRRIYDITNVLEGIGLIEKKSKNSIQWKGVGPGCNTREIADKLIELKAEIEELQQREQELDQHKVWVQQSIRNVTEDVQNSCLAYVTHEDICRCFAGDTLLAIRAPSGTSLEVPIPEGLNGQKKYQIHLKSVSGPIEVLLVNKEAWSSPPVAVPVPPPEDLLQSPSAVSTPPPLPKPALAQSQEASRPNSPQLTPTAVPGSAEVQGMAGPAAEITVSGGPGTDSKDSGELSSLPLGPTTLDTRPLQSSALLDSSSSSSSSSSSSSNSNSSSSSGPNPSTSFEPIKADPTGVLELPKELSEIFDPTRECMSSELLEELMSSEVFAPLLRLSPPPGDHDYIYNLDESEGVCDLFDVPVLNL [E2F4]
- solubility in G1/S (log2) (HeLa Kyoto [1]): 0.164
- solubility change mitosis (log2) (HeLa Kyoto [2]): -0.062
